For one compound, IC50 results are on record in patent publication US7722876B2 (priority 2002, dated 2010).

SMILES strings stand for the structures. pIC50: −log10 of the molar value. Where a SMILES comes first, the peptide text is derived from it.

For the assay, the system named is C.albicans UP10 cells. The settings on record: read-out: IC50 (mol/l); KM and C-terminal truncation derivatives; triplicate, nonlinear regression.

With `CSCC[C@H](NC(=O)[C@@H](NC(=O)[C@@H](NC(=O)[C@H](CCCCN)NC(=O)[C@H](C)N)C(C)C)[C@@H](C)O)C(=O)N[C@H](C(=O)N[C@@H](CS)C(=O)N[C@@H](CO)C(=O)N[C@@H](C)C(=O)N[C@@H](CO)C(N)=O)[C@@H](C)O` [KM] (H-AKVTMTCSAS-NH2), the pIC50 was 7.25.
